# Reference: PubChem BioAssay AID1508623 (National Center for Advancing Translational Sciences (NCATS), 2021)
# Screen size: about 48,000 compounds; about 450 (0.94%) were called active. Inconclusive results (about 19%) are left out. The call rests on the fitted dose curve; in most records, active means well fitted inhibition curve with a large enough effect; inconclusive means small, poorly fitted or top-dose-only effect; inactive means no such curve, though single readings can be large or run the other way. This is one part of the list.
# Assay: Primary qHTS for Identification of Small Molecule Inhibitors of Huntingtin Promoter Activity; further: nearly all actives have a fitted effect of over 50% in size
# Details: HEK293 HTT promoter firefly luciferase reporter (activity 0% = vehicle and -100% = no light), 24 h; series mostly up to 57.5 µM; activity change, negative = inhibition: at the top concentration
# Outline: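 Luminescence was read after Dual-Glo reagent and a 10 min room-temperature incubation. Values were normalized to vehicle (0% activity) and zero RLU (-100% activity). Reporter HEK293 cells had been exposed to compounds (up to 57.5 uM final) for 24 h.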
row,SMILES,"activity change, negative = inhibition"
1,CCc1ccccc1NC(=O)CN1C(=O)c2cccnc2Sc2ccccc21,inactive: -4.87%
2,CCn1c(=O)c2sccc2n2c(CCC(=O)Nc3ccc(OC)cc3OC)nnc12,inactive: -11.6%
3,Cc1ccc(Cn2c(CNC(=O)Cc3cccc([N+](=O)[O-])c3)nc3cccnc32)cc1,inactive: -11.7%
4,O=c1c2ccccc2n(Cc2c(F)cccc2Cl)c(=O)n1Cc1ccccc1,inactive: -50.2%
5,CCn1c(=O)cc(OCC(=O)N2CCN(c3cccc(Cl)c3)CC2)c2ccccc21,inactive: -13.7%
6,CCCCOc1ccc(CNC(=O)C2CCCN(c3nnc(-n4c(C)ccc4C)s3)C2)cc1 (configuration not stated),inactive: -29.8%
7,Cc1ccc2c(c1)sc1nc(=O)n(-c3ccc(Cl)c(Cl)c3)c(=O)n12,inactive: -8.9%
8,COc1ccc(C2=C(C)C(=NCc3ccc(OC(C)C)cc3)NS2(=O)=O)cc1,inactive: -12%
9,CCNc1ccc(-c2nc(-c3ccncc3)no2)cc1[N+](=O)[O-],inactive: 30.7%
10,CCN1CCN(C(=O)N[C@@H](C(=O)N[C@@H]2C(=O)N3[C@@H]2SC(C)(C)[C@H]3C(=O)O)c2ccccc2)C(=O)C1=O,inactive: 1.35%
11,CCn1cc(C(=O)NCCc2ccc(Cl)cc2)c(=O)c2cc(S(=O)(=O)N3CCCCCC3)ccc21,inactive: -9.77%
12,Cc1nn(CCCC(=O)Nc2cccc(C(F)(F)F)c2)c(=O)c2nn(-c3ccccc3)c(C)c12,inactive: -14.2%
13,COc1cccc2c1C(=O)c1c(O)c3c(c(O)c1C2=O)C[C@@](O)(C(C)=O)C[C@@H]3O[C@H]1C[C@H](N)[C@H](O)[C@H](C)O1,inactive: -32.7%
14,COc1cc(NC(=O)Cn2cnc3sc(C)c(S(=O)(=O)N4CCC(C)CC4)c3c2=O)cc(OC)c1OC,inactive: -0.624%
15,Cc1ccc2c(=O)c(C(=O)c3ccccc3)cn(CC(=O)Nc3ccccc3C)c2n1,inactive: 8.29%
16,O=C(COc1ccccc1F)Nc1ccc2nc(SCC(=O)N3CCCC3)sc2c1,inactive: 14.1%
17,COc1ccc(CNC(=O)c2cc3c(=O)[nH]c4ccccc4c3n2C)c(OC)c1,inactive: -10.9%
18,COc1ccc(Cl)cc1NC(=O)NCc1noc2ccccc12,inactive: -24.5%
19,Cc1ccc(-c2c(C(=O)N(C)Cc3ccccc3)oc(=O)c3ccccc23)cc1,inactive: -26.5%
20,O=C(CN1CCCN(Cc2cccc(F)c2)S1(=O)=O)Nc1ccc2c(c1)OCCO2,inactive: 0.0904%
21,O=C(NCC(c1cccnc1)N1CCc2ccccc2C1)C(=O)Nc1ccc(F)cc1F (configuration not stated),inactive: -18.7%
22,Cc1cccc(-c2nc(C)c(CCNC(=O)c3cccs3)s2)c1,inactive: 2.77%
23,CC(C)c1ccc(NC(=O)CCNS(=O)(=O)c2ccc3c(c2)oc(=O)n3C)cc1,inactive: -9.75%
24,O=C(CCS(=O)(=O)c1nc(-c2ccc3c(c2)OCO3)cc(C(F)(F)F)n1)Nc1ccc(F)cc1F,inactive: 4.5%

row,SMILES,"activity change, negative = inhibition"
1,COC(=O)c1nnn(-c2ccc(Cl)cc2)c1C(=O)OC,inactive: 2.93%
2,Cc1ccc(-n2ncc(C(=O)N3CCN(C(=O)c4ccco4)CC3)c2C2CCN(C(=O)OC(C)(C)C)CC2)cc1,inactive: 7.37%
3,CCS(=O)(=O)c1ncc(Cl)c(C(=O)Nc2c(C(=O)c3ccc(C)cc3)oc3ccccc23)n1,inactive: -8.81%
4,COc1cccc(-c2cn3c(n2)sc2cc(C(=O)NCCC4=CCCCC4)ccc23)c1,inactive: -1.32%
5,Cc1cccc(CCNC(=O)c2nn(C)c3c2CSc2ccccc2-3)c1,inactive: -8.18%
6,CCOc1ccc(CN(C(=O)c2cc(=O)c3cc(Cl)ccc3o2)C2CCS(=O)(=O)C2)cc1 (configuration not stated),inactive: -2.19%
7,CCCCOC(=O)c1c(C)oc2ccc(NS(=O)(=O)c3ccc(F)cc3C)cc12,inactive: -19.3%
8,COc1ccc(-c2cc(C(F)(F)F)n3nc(C(=O)Nc4sc5c(c4C(=O)OC(C)C)CCCC5)cc3n2)cc1OC,inactive: -16.6% [at 11.5 µM]
9,NC(N)=NC(=O)c1nc(Cl)c(N)nc1N,inactive
10,CCN(CC)C(=O)C1CCN(c2cc(C)nc3c(-c4ccc(OC)c(OC)c4)c(C)nn23)CC1,inactive: -5.2%
11,Cn1c(C(=O)N2CCCC(C(=O)N3CCN(c4ccccc4)CC3)C2)cc2sccc21 (configuration not stated),inactive: -22.8%
12,CCCCNC(=O)CSC1=Nc2ccccc2C2=NC(CCC(=O)NCc3ccccc3OC)C(=O)N12 (configuration not stated),inactive: -8.8%
13,COc1ccc(NC(=O)Cn2c(=O)n(-c3ccc(C)c(C)c3)c(=O)c3c4c(sc32)CCCCC4)cc1Cl,inactive: -14.5%
14,CCc1ccc(NC(=O)CSc2cn(CC(=O)N3CCOCC3)c3ccccc23)cc1,inactive: 17.2%
15,O=c1oc2c(O)c(O)cc3c(=O)oc4c(O)c(O)cc1c4c23,inactive
16,COc1cc2c(cc1OC)n(CC(=O)Nc1ccccc1)c(=O)n1nc(-c3ccccc3)nc21,inactive: -7.31%
17,COC(=O)c1ccc(NC(=O)C(=O)NCCc2sc3nc(-c4ccc(OC)cc4)nn3c2C)cc1,inactive: -2.81%
18,O=C(CCn1c(=O)c2cccn2c2cccnc21)NCc1ccc(Cl)cc1,inactive: 1.25%
19,COc1ccccc1NC(=O)C1=C(C)Nc2c(C(=O)Nc3cccc(C)c3)cnn2C1c1ccccc1C (configuration not stated),inactive: -14.1%
20,Cc1ccc(/C=C/c2nc3ccccc3n2S(=O)(=O)c2cccc(Cl)c2)cc1,inactive: 18.3%
21,Cc1cccc(OC(=O)c2nc(SCc3ccccc3F)ncc2Cl)c1,inactive: 1.23%
22,Cc1ccc(Nc2nc3c(S(=O)(=O)c4ccccc4)nnn3c3ccc(Cl)cc23)c(C)c1,inactive: -23.8%
23,CCCCC(CC)CNC(=O)CC(C)OC(=O)CCC(=O)O (configuration not stated),inactive: 28.8%
